{"source": "PubChem BioAssay AID1345082", "about": "(National Center for Advancing Translational Sciences (NCATS), 2018)", "note": "About 4,000 (4.3%) of roughly 94,000 compounds were called active. The inconclusive results got no clear call from the source; some entries with a clear call stand among them for comparison. Calls come from the whole dose curve; as a rule, active = well fitted inhibition curve with a large enough effect; inconclusive = small, poorly fitted or top-dose-only effect; inactive = no such curve, though single readings can be large or run the other way. A potency beside an inconclusive call is a rough fit, not a confirmed value. % is set by controls: 0 for no effect and ±100 for the full control effect; potency is the fitted concentration of half-maximal effect; tags give direction and shape of the fitted curve."}
{"test": "Cytotoxic Profiling in NIH 3T3 Cell Line of Diverse Libraries Using Quantitative High-Throughput Screening; note: nearly all actives have a fitted effect of over 55% in size", "conditions": "NIH 3T3 viability, CellTiter-Glo ATP luminescence, 48-72 h; activity change, negative = cytotoxicity: at 96.7 µM (top of the series) unless noted; series mostly up to 96.7 µM", "procedure,_shortened": "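Cytotoxicity was measured by CellTiter-Glo ATP luminescence after 48 or 72 h compound exposure at 37 °C. Mouse NIH 3T3 fibroblasts were seeded at 400 cells/well and dosed by 23 nL pin transfer.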"}
{"smiles": "CC(=O)Nc1ccc(C2(C(=O)NCc3ccc(N(C)C)cc3)CCCCC2)cc1", "activity change, negative = cytotoxicity": "inactive: -9.48%"}
{"smiles": "CCOc1ccc(C(=O)N2CCC(Cc3nc(-c4cnccn4)no3)CC2)cc1", "Potency": "inconclusive: 39.8 µM [inhibitor, partial curve, poor fit]"}
{"smiles": "CCCc1noc(-c2cn(C3CCN(C(=O)c4ccc5c(c4)OCO5)CC3)nn2)n1", "Potency": "inconclusive: 50.1 µM [inhibitor, partial curve, poor fit]"}
{"smiles": "O=C(NCC1CN(C(=O)Cc2ccc(C(F)(F)F)cc2)CC12CN(c1ccccc1)C2)c1ccccc1", "note": "(stereo not drawn)", "Potency": "inconclusive: 50.1 µM [inhibitor, partial curve, poor fit]"}
{"smiles": "Cc1nn(C)cc1CN(C)CC1(O)CCCN(Cc2cccc(F)c2F)C1=O", "note": "(stereo not drawn)", "activity change, negative = cytotoxicity": "inactive: -3.62%"}
{"smiles": "Cn1cc(-c2cc(C3=CCOCC3)c3cncn3c2)cn1", "Potency": "inconclusive: 126 µM [inhibitor, single point]"}
{"smiles": "Cc1ccsc1CN1CCCCCCNC(=O)[C@@H]2CCC[C@@H]21", "Potency": "inconclusive: 70.8 µM [inhibitor, single point]"}
{"smiles": "COc1ccc(C(CC(=O)NCCc2ccc(OC)c(OC)c2)c2c[nH]c3ccccc23)c(OC)c1", "note": "(stereo not drawn)", "Potency": "inconclusive: 44.7 µM [inhibitor, partial curve, poor fit]"}
{"smiles": "CCc1ccc(CNC(=O)C2(Cc3cccnc3)CCCCC(=O)N2)cc1", "note": "(stereo not drawn)", "Potency": "inconclusive: 25.1 µM [inhibitor, partial curve]"}
{"smiles": "CC(C)(C)CC(=O)N1CC[C@H]2COC(=O)N2c2cc(F)ccc2C1", "activity change, negative = cytotoxicity": "inactive: 1.15% [at 174 µM]"}
{"smiles": "O=C(Cc1cccc(F)c1)N1CCC(c2n[nH]c(=O)n2-c2ccccc2)CC1", "activity change, negative = cytotoxicity": "inactive: -27.5%"}
{"smiles": "CCOc1ccc(C(=O)N2c3ccccc3CC2c2nc(CCOC)no2)cc1", "note": "(stereo not drawn)", "Potency": "inconclusive: 39.8 µM [inhibitor, partial curve, poor fit]"}
{"smiles": "Cc1noc(C)c1C(=O)N1CCC2(CC1)CC(c1ccccc1)C(=O)N(C)C2", "note": "(stereo not drawn)", "Potency": "inconclusive: 56.2 µM [inhibitor, partial curve, poor fit]"}
{"smiles": "Cc1cccc(CN2CCCC(O)(CNCC(C)(C)C)C2=O)c1", "note": "(stereo not drawn)", "activity change, negative = cytotoxicity": "inactive: -21%"}
{"smiles": "O=C(NCCc1c[nH]c2ccccc12)c1cnc2c(c1)N(C(=O)CCc1ccccc1)CCC2", "Potency": "inconclusive: 50.1 µM [inhibitor, partial curve, poor fit]"}
{"smiles": "CC(C)CCN1CCC(N2CCN(C(=O)c3cc(F)ccc3F)CC2)C1=O", "note": "(stereo not drawn)", "activity change, negative = cytotoxicity": "inactive: -1.18%"}
{"smiles": "CN1CCCCCCN(Cc2cn(C)c3ccccc23)[C@H]2CCC[C@H]2C1=O", "Potency": "inconclusive: 39.8 µM [inhibitor, partial curve, poor fit]"}
{"smiles": "Cc1nn(-c2ccc(F)cc2)c(C)c1[C@@H]1C=C[C@@H](NS(=O)(=O)c2cccs2)C1", "Potency": "inconclusive: 35.5 µM [inhibitor, partial curve]"}
